167 variants from the RNAGym collection of RNA variant scans (doi:10.7554/elife.90254) can be followed below.

The source gives no read counts; variants with many changes may rest on few reads.

To fix the notation:
B1: LINE1-mini (parent)
chain: GGCAGAGCUCAACACAGCGUGGCAAAGUGGCUGUGGCUAGACUGCC

Variants of B1 are the subject of this data set. As to the kind of experiment: self-cleavage, relative activity (ratio to wild type); higher = more cleavage; in vitro, sequencing; the parent is a self-cleaving ribozyme.
Regarding U20C A26G G29U, the self-cleavage was 0.39.

With G21A G30U G40C, the self-cleavage was determined as 0.08.

Turning to U20A C42G C46U, the self-cleavage worked out at 0.

U20C G22U C23U A26G: the self-cleavage was determined as 0.49.

With U20G G36U C37U, the self-cleavage amounted to 0.04.

In the case of U20C U34C A41G, the self-cleavage came out at 0.05.

For U20C G33U G35A, the self-cleavage was determined as 0.23.

As to U20C C37U G40C, the self-cleavage was determined as 0.04.

Regarding U20G A39U C42U, the self-cleavage stood at 0.18.

In the case of G21A A24G G30U G33U C37A, the self-cleavage was 0.12.

For the variant U20C C31A U34C C42G, the self-cleavage was 0.01.

With U20A G36A C42U, the self-cleavage was found to be 0.05.

On to U20A G29C U34C G40C, for which the self-cleavage came out at 0.05.

Take G21A G27C G33C: the self-cleavage was determined as 0.29.

Consider U20C C23A G29A C45U, for which the self-cleavage was 1.35.

In the case of U20A G29U A39U A41U, the self-cleavage was determined as 0.75.

With G21A C37U U38A, the self-cleavage is 0.22.

Turning to U20C C23U C37U, the self-cleavage came out at 0.02.

With U20G G21A C23G, the self-cleavage turned out to be 0.38.

Regarding U20A G27A U28C G35U, the self-cleavage was determined as 0.1.

Take U20A A24U A39G: the self-cleavage is 0.05.

In the case of G21A G22U G33U C46U, the self-cleavage was 0.09.

As for U20C G30U U32G A39U, the self-cleavage was determined as 0.01.

With U20A G21U G27U G30C C45U, the self-cleavage is 0.7.

U20G G29U A39U: the self-cleavage came to 0.24.

As for G21A A24U U28A G35C C42U, the self-cleavage came to 0.05.

G21A C23U G27C: the self-cleavage was 0.77.

As for U20C G36U U38A C46U, the self-cleavage turned out to be 0.03.

For the variant U20C U28A C37U, the self-cleavage was found to be 0.01.

Consider U20A G36C U43A, for which the self-cleavage was determined as 0.02.

For U20A G29A A39U, the self-cleavage amounted to 0.53.

U20C G29A A39U: the self-cleavage amounted to 0.74.

As to U20G G27A G35C, the self-cleavage was found to be 0.06.

Take U20A C37A C46A: the self-cleavage stood at 0.07.

On to U20C G22U G33A, for which the self-cleavage was 0.44.

Take U20C A24U C45U: the self-cleavage was 1.89.

Turning to U20G C31A C42U, the self-cleavage stood at 0.01.

Take G21A A25U U34C G35U: the self-cleavage stood at 0.22.

Turning to U20G G21C G27U, the self-cleavage came out at 0.42.

In the case of U20G A25G A26U U32A, the self-cleavage is 0.01.

On to U20A A24C G29U A41U, for which the self-cleavage was 0.27.

In the case of U20C A24U C31G, the self-cleavage was 0.03.

Turning to U20A G22U G27C C46G, the self-cleavage stood at 0.63.

Regarding G21A G22A U43A C45U, the self-cleavage is 0.71.

Regarding U20G A25C G35U G40U, the self-cleavage was found to be 0.

With G21A G29U C45U, the self-cleavage was determined as 2.67.

On to G21A C37A A41U, for which the self-cleavage worked out at 0.2.

Take U20C A24G G36C G40U C42U: the self-cleavage turned out to be 0.06.

In the case of G21A A25C U32G G36A, the self-cleavage was 0.03.

Turning to U20G A24U C37U, the self-cleavage came out at 0.02.

As for U20A A25U G27A, the self-cleavage worked out at 1.16.

As to U20C G21U U38C, the self-cleavage came out at 0.14.

For the variant U20C G30A A39C U43A C46A, the self-cleavage came to 0.04.

In the case of U20C G27A G40C, the self-cleavage amounted to 0.05.

As for U20A C31G C45G, the self-cleavage was 0.03.

With U20A G29A G35C, the self-cleavage is 0.04.

In the case of U20G A26G G29A C46A, the self-cleavage stood at 0.16.

As to U20G G30U C31A G36A, the self-cleavage is 0.03.

Turning to U20C C23A A26G C45A, the self-cleavage amounted to 0.18.

With G21A A26G U38A, the self-cleavage is 0.87.

In the case of G21A G30A C31A, the self-cleavage worked out at 1.11.

Regarding U20A G27C C46U, the self-cleavage was determined as 1.14.

Take G21A G22A U32C G44A: the self-cleavage worked out at 0.09.

On to G21A C31A C37G U43C, for which the self-cleavage worked out at 0.05.

For the variant G21A G27A G36U, the self-cleavage was 0.2.

Turning to G21A G30A G40A, the self-cleavage was determined as 0.51.

Turning to G21A C37G A39U, the self-cleavage came to 0.08.

For U20G G27A C37A G44A C46U, the self-cleavage is 0.31.

With U20C G21A U28A, the self-cleavage was 0.49.

Take U20G G22A G30C G40U C46U: the self-cleavage was found to be 0.03.

As for U20A U34G U38C, the self-cleavage was determined as 0.22.

In the case of U20G A24C C31A C45G, the self-cleavage stood at 0.01.

U20G C37G C46U: the self-cleavage came out at 0.02.

On to U20G U28C G29U C37U, for which the self-cleavage was 0.02.

Consider U20A A25U U28A A41U G44C, for which the self-cleavage came to 0.04.

Regarding U20C G30U U32C U34A, the self-cleavage was 0.02.

With U20A C23G G29U, the self-cleavage was 0.43.

Turning to U20A C23A A25C, the self-cleavage was found to be 0.36.

Regarding U20A G21A C46A, the self-cleavage was found to be 0.32.

As to U20C G35A C45U, the self-cleavage turned out to be 0.2.

In the case of U20C A39C A41C C42A, the self-cleavage came to 0.

As to U20A A24C A25U, the self-cleavage was 0.54.

As to U20C C23A C31A, the self-cleavage turned out to be 0.06.

As for U20A A25U G35A, the self-cleavage came out at 0.09.

With U20C G21C U34C G35U, the self-cleavage came out at 0.05.

As for G21A G22A C31G, the self-cleavage is 0.07.

On to U20G C23G G36C, for which the self-cleavage was 0.06.

Consider G21A A26U G29A, for which the self-cleavage came to 0.57.

Regarding U20G A24U U28A, the self-cleavage was found to be 0.4.

For the variant G21A C31G U43G, the self-cleavage came to 0.

G21A A25C U28G C31U: the self-cleavage worked out at 1.4.

On to G21A A24G C37U, for which the self-cleavage came to 0.09.

With G21A G22A C23U C37G, the self-cleavage worked out at 0.01.

For U20C G21U A39U, the self-cleavage was 0.09.

As for G21A C31A A41G, the self-cleavage worked out at 0.06.

Turning to U20A A26C C46U, the self-cleavage came out at 0.24.

For the variant U20C C37U A39C G40U, the self-cleavage turned out to be 0.01.

In the case of G21A G27U C31A G33U G36C, the self-cleavage turned out to be 0.08.

As to U20A G22A C46A, the self-cleavage turned out to be 0.68.

In the case of G21A C37A C46A, the self-cleavage stood at 0.08.

Take U20A U28C G40U: the self-cleavage is 0.08.

For the variant U20C C23G U38G, the self-cleavage was 0.01.

Take U20G G21U G27C A41C C46A: the self-cleavage was 0.03.

Consider U20A G29A U34C, for which the self-cleavage amounted to 0.78.

In the case of U20A C37A A39C, the self-cleavage worked out at 0.03.

For U20G G29U C31G U32G, the self-cleavage was 0.01.

Regarding U20C G36A G40U C45G, the self-cleavage was determined as 0.04.

With U20G G21A A39G, the self-cleavage was 0.14.

As for U20A C23G U34A, the self-cleavage amounted to 0.03.

For the variant U20A C23G U34C, the self-cleavage turned out to be 0.21.

In the case of U20G G21U A26U, the self-cleavage was determined as 0.29.

In the case of G21A C23A G35A C42G, the self-cleavage was found to be 0.05.

Regarding U20G U28A C45U, the self-cleavage was determined as 0.78.

Take U20G C23A A25G G30C U34A: the self-cleavage was 0.01.

Regarding G21A A24C U38A, the self-cleavage is 0.76.

Consider U20A G21C A41C, for which the self-cleavage was 0.09.

For U20A C23U A26G G29U, the self-cleavage was determined as 0.88.

Regarding U20A A25U G40A, the self-cleavage was determined as 0.06.

In the case of U20G G30U G44C, the self-cleavage was 0.07.

Consider G21A A25U C45A, for which the self-cleavage was found to be 0.56.

With U20A G21U C23A, the self-cleavage was found to be 1.78.

Consider U20A G21C C23G C46G, for which the self-cleavage is 1.15.

Take U20G G21U A39U G44A: the self-cleavage is 0.06.

G21A A39U G44C: the self-cleavage was 0.23.

On to U20C U43C C46U, for which the self-cleavage is 0.03.

Consider U20G A24U U32A, for which the self-cleavage amounted to 0.06.

On to U20A C23U C31G U32A, for which the self-cleavage came to 0.07.

With U20C C37U U43A, the self-cleavage is 0.05.

For U20A A25G G30U U38C, the self-cleavage was determined as 0.22.

Consider U20A G40U C42U G44C, for which the self-cleavage was determined as 0.08.

For U20A C31A G40U G44U, the self-cleavage is 0.02.

U20A G44A C45U C46A: the self-cleavage turned out to be 0.02.

For U20C G21U C42A, the self-cleavage came to 0.15.

As for U20G A26G U43C, the self-cleavage worked out at 0.07.

As to U20C G22A G35U, the self-cleavage came out at 0.11.

Regarding U20A A25C C31A G35A U38C, the self-cleavage came to 0.04.

On to U20C U38A U43G, for which the self-cleavage stood at 0.01.

Turning to U20C G29C U38A G40A C42A, the self-cleavage amounted to 0.02.

On to U20C C23A C45A, for which the self-cleavage was 0.1.

Take U20G A25C U28C C45A: the self-cleavage was 0.16.

In the case of U20A G35U C46A, the self-cleavage was determined as 0.05.

U20C G33C C42U: the self-cleavage was 0.02.

In the case of U20A U38A G44C, the self-cleavage came out at 0.12.

As for G21A A25G G27C G29A, the self-cleavage amounted to 0.27.

Take U20G U34C G35U: the self-cleavage is 0.24.

Take U20G G30U C45U: the self-cleavage is 0.34.

For G21A C23U A26U G27C G29U U34C, the self-cleavage turned out to be 0.28.

Regarding U20G C31A G35U, the self-cleavage was 0.03.

For the variant U20C G22A G30U, the self-cleavage worked out at 0.09.

On to U20A G44U C45G, for which the self-cleavage is 0.09.

Take U20A A25U G27C G44C: the self-cleavage was 0.12.

With U20C G22C C31U U34C A39G C42A, the self-cleavage was 0.06.

G21A A25C G29A C46G: the self-cleavage came to 0.34.

Turning to U20C G44A C45U, the self-cleavage worked out at 0.06.

For G21A A39C C45G, the self-cleavage was 0.06.

In the case of U20C G21C G30C G35C, the self-cleavage is 0.08.

On to U20G G27U U34C U43C, for which the self-cleavage came out at 0.08.

Regarding U20A U28A G30A G33A, the self-cleavage amounted to 0.07.

U20A A25C G29C U32C G36A C42U G44U: the self-cleavage stood at 0.01.

For U20G G22C G35U, the self-cleavage amounted to 0.03.

With G21A C31G G35A A39C, the self-cleavage amounted to 0.05.

Regarding U20C G35U A41U, the self-cleavage came out at 0.04.

On to U20C A26G C37U, for which the self-cleavage came out at 0.02.

In the case of U20G G36U C45A, the self-cleavage was determined as 0.03.

On to G19U U38G C46U, for which the self-cleavage was 0.02.

Consider U20A G29U G35U C46U, for which the self-cleavage turned out to be 0.03.

Regarding U20C G22A U32G G35A, the self-cleavage stood at 0.03.
